Assay results as given in PMC4336329 (PLoS ONE, 2015).
The whole screen tested about 310,000 compounds, of which about 14,000 (4.5%) showed an effect of 50% or more. The effect is printed as a negative number. This is one part of the list.

These molecules were tested against human ether-à-go-go-related gene (hERG) potassium channel (human, UniProt Q12809) (assay: primary screen, population patch clamp on CHO cells stably expressing hERG).
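Further: peak tail current of the secondary pulse compared with the same well before compound.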

Sequence of human ether-à-go-go-related gene (hERG) potassium channel (Q12809 whole entry, looked up): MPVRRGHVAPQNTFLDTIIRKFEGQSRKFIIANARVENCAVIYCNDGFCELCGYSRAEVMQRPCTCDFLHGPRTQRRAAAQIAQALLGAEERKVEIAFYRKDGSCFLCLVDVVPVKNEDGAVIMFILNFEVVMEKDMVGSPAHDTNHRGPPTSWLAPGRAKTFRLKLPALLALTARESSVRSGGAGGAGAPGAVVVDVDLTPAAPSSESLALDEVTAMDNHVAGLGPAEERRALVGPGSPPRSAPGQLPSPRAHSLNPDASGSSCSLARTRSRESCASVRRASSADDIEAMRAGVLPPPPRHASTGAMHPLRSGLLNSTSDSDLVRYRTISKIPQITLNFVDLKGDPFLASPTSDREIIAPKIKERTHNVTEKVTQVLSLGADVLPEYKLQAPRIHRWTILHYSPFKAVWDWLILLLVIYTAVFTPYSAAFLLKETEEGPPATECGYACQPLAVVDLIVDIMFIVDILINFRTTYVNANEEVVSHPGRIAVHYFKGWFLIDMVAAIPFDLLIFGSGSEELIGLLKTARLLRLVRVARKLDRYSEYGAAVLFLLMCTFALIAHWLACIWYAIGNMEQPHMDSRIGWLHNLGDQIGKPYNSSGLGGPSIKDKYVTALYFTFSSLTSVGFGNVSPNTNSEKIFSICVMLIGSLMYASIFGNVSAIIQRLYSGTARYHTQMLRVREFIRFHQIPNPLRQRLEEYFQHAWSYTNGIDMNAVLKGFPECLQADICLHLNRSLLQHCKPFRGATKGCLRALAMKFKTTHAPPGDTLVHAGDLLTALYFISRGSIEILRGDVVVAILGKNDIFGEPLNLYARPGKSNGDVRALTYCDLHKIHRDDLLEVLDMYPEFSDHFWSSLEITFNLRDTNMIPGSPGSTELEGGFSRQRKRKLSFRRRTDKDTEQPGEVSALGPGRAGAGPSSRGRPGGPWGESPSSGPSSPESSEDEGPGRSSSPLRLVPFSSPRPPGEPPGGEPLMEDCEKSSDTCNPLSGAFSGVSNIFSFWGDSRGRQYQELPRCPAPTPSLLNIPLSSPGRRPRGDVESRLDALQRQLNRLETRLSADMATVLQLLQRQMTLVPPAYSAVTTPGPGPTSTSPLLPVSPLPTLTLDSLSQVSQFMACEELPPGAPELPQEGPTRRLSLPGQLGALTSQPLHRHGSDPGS

| Compound | hERG current change (%, negative = inhibition) at 10uM |
| --- | --- |
| O=C(/C=C/c1ccc(F)cc1)NC(Cc1c[nH]c2ccccc12)C(=O)O (centres unmarked) | -1.47% |
| O=c1c2ccccc2sn1-c1cc(S(=O)(=O)N2CCOCC2)ccc1N1CCCC1 | 0.515% |
| COc1ccccc1CNC(=O)CCc1nc2ccccc2c(=O)[nH]1 | -1.26% |
| CSc1ccc(/C=N/NC(=O)COc2ccc(Br)cc2Cl)cc1 | 9.71% |
| CCOC(=O)CSc1nc(-c2ccc3c(c2)OCO3)ccc1C#N | 7.3% |
| Cn1cc(C(=O)c2ccc(Cl)cc2)cc1-c1nc2ccccc2n1C | -47.9% |
| COc1ccccc1CNC(=O)c1cn(C)c2ccc(S(=O)(=O)N3CCCCC3)cc2c1=O | 29.6% |
| CN(C)S(=O)(=O)c1ccc(C(=O)NCc2nnc(SCC(=O)N3CCCCCC3)o2)cc1 | 21.4% |
| CCOC(=O)C1=C(c2ccc(OC)cc2)C(=O)c2ccccc2C1=O | 15.7% |
| CC1CC2(CCCC2)N(C(=O)N(C)C)c2ccc(F)cc21 (centres unmarked) | 7.09% |
| O=Cc1ccccc1OCCN1CCCC1=O | 17.2% |
| CSc1ccc(S(=O)(=O)N2CCC(C(=O)NCc3ccccn3)CC2)cc1 | -7.66% |
| O=C(c1cc(S(=O)(=O)N2CCCCC2)c(Cl)cc1N1CCOCC1)N1CCOCC1 | -5.57% |
| COc1ccccc1/C=C/C=N/n1c(-c2ccccc2)n[nH]c1=S | -18.9% |
| CCOC(=O)c1c(C=O)c2ccccc2n1CC | 17.1% |
| Cc1ccc(C(=O)N(C)c2ccc(OCC(=O)N3c4ccc(C)cc4C4CN(C)CCC43)cc2)cc1.Cl (centres unmarked) | -25.5% |
| COc1ccc2cc(C(=O)NCc3ccccc3)c(=O)oc2c1 | 17.8% |
| COC(=O)c1ccc(OC)c(-c2c(OC)cc(OC)cc2OC)c1 | -1.49% |
| CC1(C)C2CCC1(CS(=O)(=O)N1CCC(C(=O)O)CC1)C(=O)C2 (centres unmarked) | 2.6% |
| O=C(CN1CCN(S(=O)(=O)N2CCCCC2)CC1)Nc1ccc(Br)cc1 | -78.2% |
| CCOC(=O)/C=C1\SCC(=O)N1CC(=O)NCc1ccc(OC)c(OC)c1 | -3.73% |
| Cc1ccc(C)c(NC(=O)CN(C)C(=O)CCN2C(=O)c3ccccc3C2=O)c1 | 0.75% |

| Compound | hERG current change (%, negative = inhibition) at 10uM |
| --- | --- |
| Cc1ccc(C)c(N2N=C(C(=O)O)CCC2=O)c1 | 5.29% |
| CCc1cc2c(N3CCCCC3)ncnc2s1.Cl | -7.21% |
| COCCNC(=O)COc1ncnc2ccc(Br)cc12 | -1.11% |
| CCN1C(=O)N[C@H](c2ccc(Br)cc2)C(C(=O)OC)=C1C | 2.79% |
| O=C(NNC(=O)C12CC3CC(CC(O)(C3)C1)C2)c1csc(N2CCOCC2)n1 | 21.9% |
| O=C(c1ccc2ccccc2c1)C1CCCN(C(=O)CCn2cnnn2)C1 (centres unmarked) | -15.5% |
| COc1ccc(OCC2CCCN(Cc3nc(CC4CC4)no3)C2)cc1 (centres unmarked) | -46.3% |
| Cc1c(C(=O)N2CCC(Cc3ccccc3)CC2)cccc1[N+](=O)[O-] | -34.3% |
| CCOC(=O)c1ccc(N=c2sc(C(=O)OC)cc(=O)n2Cc2ccc3c(c2)OCO3)cc1 | 8.99% |
| CC1CCN(c2oc(-c3ccccc3F)nc2C#N)CC1 | -10.7% |
| C=CCn1c(CCNC(=O)c2cccs2)nnc1SCC(=O)Nc1cccc(F)c1 | -34.6% |
| Cc1ccc(NS(=O)(=O)c2c(C)nc3sccn3c2=O)cc1 | -6.98% |
| O=C(N/N=C/c1ccc(Cl)c([N+](=O)[O-])c1)c1cc(-c2ccc3c4c(cccc24)CC3)n[nH]1 | 8.06% |
| O=C(O)C1CCCCC1C(=O)NCCc1c[nH]c2ccccc12 (centres unmarked) | 8.71% |
| COC(=O)c1ccc(N2CCOCC2)c(NC(=O)c2ccc3c(c2)OCCO3)c1 | 9.21% |
| C=CCn1nnc2sc3c(c2c1=O)CCC(C)C3 (centres unmarked) | 7.5% |
| Cc1c(NS(=O)(=O)c2cccc(C(=O)NCc3ccccc3)c2)c(=O)n(-c2ccccc2)n1C | 4.59% |
| CCOC(=O)/C(C#N)=C/c1c(N2CCN(C)CC2)nc2ccccn2c1=O | 9.23% |
| COc1ccc(NC(=O)C(=O)NNC(=O)c2cccs2)c(OC)c1 | -6.86% |
| CC(C)CNC(=O)CSc1nc2scc(-c3ccccc3)c2c(=O)[nH]1 | 1.58% |
| O=C(OCCN1C(=O)c2ccccc2C1=O)C1CC(O)CN1S(=O)(=O)c1ccc(Cl)cc1 (centres unmarked) | -15.1% |
| CCOC(=O)C1=C(CSc2nc3ccccc3s2)NC(=O)NC1c1ccc(OC)cc1 (centres unmarked) | 2.5% |
